Experimental data reported in the antibiotic and cytotoxicity screens of Wong et al. (2023).
The list shows a part of the results.

test system: HSkMC (human skeletal muscle cells); assay: cytotoxicity call (relative viability < 0.9); conditions: 10 µM

Structure (SMILES)	cytotoxicity call
C=CN1CCCC1=O	inactive
COc1ccc(NC(=O)Nc2ccc3c(c2)C(=O)N([C@@H](C)CO)C[C@@H](C)[C@H](CN(C)Cc2ccccc2)OCCCC[C@H](C)O3)cc1	inactive
COc1ccc(S(=O)(=O)N(C)C[C@@H]2Oc3ccc(NC(=O)c4ccncc4)cc3C(=O)N([C@H](C)CO)C[C@@H]2C)cc1	inactive
CC1CC2C3CCC4=CC(=O)C=CC4(C)C3(F)C(O)CC2(C)C1(O)C(=O)CO (stereo not drawn)	inactive
C[C@@H]1CN([C@H](C)CO)C(=O)c2cc(NS(=O)(=O)c3cn(C)cn3)ccc2O[C@H]1CN(C)Cc1ccncc1	inactive
COc1ccc(NC(=O)Nc2ccc3c(c2)[C@H]2C[C@H](CC(=O)N4CCN(C)CC4)O[C@@H](CO)[C@H]2O3)cc1	inactive
COc1cc2c(NC3CCN(C(C)C)CC3)nc(N3CCC(F)(F)CC3)nc2cc1OCCCN1CCCC1	active
[N-]=[N+]=N[C@]1(CO)O[C@@H](n2ccc(N)nc2=O)[C@@H](O)[C@@H]1O	inactive
C[C@@H]1CN([C@H](C)CO)S(=O)(=O)c2ccc(C#CC3CC3)cc2O[C@H]1CN(C)Cc1ccc(F)cc1	active
O[C@@H]1[C@@H](O)[C@H]2OC[C@@H](O2)[C@H]1O	inactive
O[C@@H]1[C@@H](O)[C@H](OC/C=C/c2ccccc2)O[C@H](CO[C@@H]2OC[C@@H](O)[C@@H](O)[C@@H]2O)[C@H]1O	inactive
CCCC[C@@H](C#N)c1ccc(F)cn1	inactive
Cc1ccc2n[nH]c(C(=O)N3CCN4C(=O)CNC(=O)[C@@H]4C3)c2c1	inactive
